Results from the BET-seq Pho4 binding data (Le et al. 2018).
The other results are listed elsewhere or left out. The energies were worked out here from pooled read counts, against the library average; single values are noisy.

Each sequence was assayed against T1, Pho4 (S. cerevisiae) (UniProt P07270) (assay: relative binding free energy (BET-seq); higher = weaker binding). Details: reference: library average.
T1 sequence: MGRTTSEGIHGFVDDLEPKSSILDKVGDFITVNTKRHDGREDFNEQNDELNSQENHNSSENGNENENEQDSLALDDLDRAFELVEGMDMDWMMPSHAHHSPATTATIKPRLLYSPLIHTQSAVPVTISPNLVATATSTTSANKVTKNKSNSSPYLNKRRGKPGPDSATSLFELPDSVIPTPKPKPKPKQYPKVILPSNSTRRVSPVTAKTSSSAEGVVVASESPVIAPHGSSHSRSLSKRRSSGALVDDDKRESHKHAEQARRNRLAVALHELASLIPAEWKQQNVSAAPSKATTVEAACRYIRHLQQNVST
TGGCACACGTGAGGGC was tested, and the “relative binding free energy” value was 0.24 kcal/mol.
In the case of ATGTCCACGTGTTTAG, the “relative binding free energy” value is reported as 0.05 kcal/mol.
With TTAGCCACGTGTGTGA the “relative binding free energy” value was -0.08 kcal/mol.
For AATGGCACGTGTTCGG, the “relative binding free energy” value was -0.08 kcal/mol.
For AAAGACACGTGGGATG, the “relative binding free energy” value was -0.09 kcal/mol.
In the case of ATATACACGTGCTTTA, the “relative binding free energy” value is reported as 0 kcal/mol.
In the case of TATGGCACGTGTAGGT, the “relative binding free energy” value is reported as -0.09 kcal/mol.
For AGCGACACGTGTTGTG, the “relative binding free energy” value was 0.07 kcal/mol.
For GTTTACACGTGTGGTG, the “relative binding free energy” value was 0.11 kcal/mol.
In the case of TTGCTCACGTGGGGGT, the “relative binding free energy” value is reported as 0.12 kcal/mol.
In the case of GATGTCACGTGATGGG, the “relative binding free energy” value is reported as 0.28 kcal/mol.
With TGGTTCACGTGTAAGC the “relative binding free energy” value was 0.27 kcal/mol.
In the case of TTGAGCACGTGGGGGC, the “relative binding free energy” value is reported as -0.21 kcal/mol.
In the case of GTGGTCACGTGGCTCT, the “relative binding free energy” value is reported as 0.05 kcal/mol.
CGGTTCACGTGGAGGT was tested, and the “relative binding free energy” value was 0.27 kcal/mol.
In the case of TTCGACACGTGTTGGA, the “relative binding free energy” value is reported as 0.14 kcal/mol.
With GTGTTCACGTGAGCAG the “relative binding free energy” value was 0.28 kcal/mol.
In the case of AATGACACGTGTTTGT, the “relative binding free energy” value is reported as 0.02 kcal/mol.
GAATTCACGTGCTTTT was tested, and the “relative binding free energy” value was 0.38 kcal/mol.
TGGATCACGTGGCTGA was tested, and the “relative binding free energy” value was 0.05 kcal/mol.
In the case of ATGATCACGTGGGAAG, the “relative binding free energy” value is reported as 0.12 kcal/mol.
In the case of GCGTGCACGTGTGTTG, the “relative binding free energy” value is reported as 0.09 kcal/mol.
In the case of AGGTGCACGTGGACGG, the “relative binding free energy” value is reported as 0.04 kcal/mol.
With CTGTGCACGTGGCTGG the “relative binding free energy” value was -0.18 kcal/mol.
In the case of TTGATCACGTGAAGAT, the “relative binding free energy” value is reported as 0.3 kcal/mol.
In the case of TGGAGCACGTGACGTG, the “relative binding free energy” value is reported as 0.14 kcal/mol.
For CGAAACACGTGGTTGT, the “relative binding free energy” value was -0.06 kcal/mol.
For TTGTGCACGTGGGAGA, the “relative binding free energy” value was -0.13 kcal/mol.
For GGGGGCACGTGATCCG, the “relative binding free energy” value was 0.02 kcal/mol.
For GACATCACGTGGTGGT, the “relative binding free energy” value was 0.16 kcal/mol.
For ATGCTCACGTGTGTCT, the “relative binding free energy” value was 0.22 kcal/mol.
AGGTGCACGTGGGAAT was tested, and the “relative binding free energy” value was -0.13 kcal/mol.
In the case of TAACTCACGTGTGGTC, the “relative binding free energy” value is reported as 0.35 kcal/mol.
For GTTTCCACGTGTGTGT, the “relative binding free energy” value was 0.14 kcal/mol.
GTAGCCACGTGGTTTT was tested, and the “relative binding free energy” value was 0.01 kcal/mol.
For TCGAGCACGTGGTGGC, the “relative binding free energy” value was -0.21 kcal/mol.
For TGATTCACGTGTTTTA, the “relative binding free energy” value was 0.4 kcal/mol.
TGTTTCACGTGGTCAC was tested, and the “relative binding free energy” value was 0.3 kcal/mol.
With TAGGGCACGTGTAAGG the “relative binding free energy” value was 0.17 kcal/mol.
TGGTCCACGTGTGTGA was tested, and the “relative binding free energy” value was -0.07 kcal/mol.
With AAGTGCACGTGTATAG the “relative binding free energy” value was -0.01 kcal/mol.
With AATGTCACGTGGTTGA the “relative binding free energy” value was 0.04 kcal/mol.
For TTTAGCACGTGTGGTG, the “relative binding free energy” value was -0.03 kcal/mol.
With TGGTTCACGTGTGGAT the “relative binding free energy” value was 0.43 kcal/mol.
GTTCACACGTGGGGAT was tested, and the “relative binding free energy” value was 0.06 kcal/mol.
In the case of GTGGGCACGTGGCAAT, the “relative binding free energy” value is reported as -0.11 kcal/mol.
In the case of GAAGTCACGTGGGAGG, the “relative binding free energy” value is reported as 0.02 kcal/mol.
TTTATCACGTGCGGTG was tested, and the “relative binding free energy” value was 0.2 kcal/mol.
AGGGGCACGTGCGCGT was tested, and the “relative binding free energy” value was -0.14 kcal/mol.
With TTGATCACGTGGATGC the “relative binding free energy” value was 0.15 kcal/mol.
For AAGTGCACGTGGTTTC, the “relative binding free energy” value was -0.11 kcal/mol.
For AAATTCACGTGATATG, the “relative binding free energy” value was 0.38 kcal/mol.
For ATGGACACGTGGGTAC, the “relative binding free energy” value was -0.14 kcal/mol.
In the case of ATGAACACGTGTAAAT, the “relative binding free energy” value is reported as 0.4 kcal/mol.
With CGTGGCACGTGGGCGG the “relative binding free energy” value was -0.37 kcal/mol.
With TGTCACACGTGGCGTG the “relative binding free energy” value was -0.05 kcal/mol.
In the case of TATTTCACGTGAAATA, the “relative binding free energy” value is reported as 0.22 kcal/mol.
In the case of ATGTTCACGTGTCGCG, the “relative binding free energy” value is reported as 0.25 kcal/mol.
In the case of ATGATCACGTGTGAGG, the “relative binding free energy” value is reported as 0.24 kcal/mol.
CGCTGCACGTGTGGGA was tested, and the “relative binding free energy” value was 0.01 kcal/mol.
TTACTCACGTGAGGAT was tested, and the “relative binding free energy” value was 0.47 kcal/mol.
With CTTATCACGTGATTGT the “relative binding free energy” value was 0.23 kcal/mol.
In the case of GATGTCACGTGAGGCT, the “relative binding free energy” value is reported as 0.44 kcal/mol.
For AATGCCACGTGATGTT, the “relative binding free energy” value was 0.23 kcal/mol.
With TGTAGCACGTGATCGG the “relative binding free energy” value was 0.05 kcal/mol.
TTTTCCACGTGTATGA was tested, and the “relative binding free energy” value was 0.06 kcal/mol.
For TCATTCACGTGGTGTC, the “relative binding free energy” value was 0.12 kcal/mol.
GTTTTCACGTGACGTC was tested, and the “relative binding free energy” value was 0.49 kcal/mol.
For GAGGGCACGTGGTAGG, the “relative binding free energy” value was -0.07 kcal/mol.
With TCATGCACGTGGTGGG the “relative binding free energy” value was -0.12 kcal/mol.
CGTAACACGTGGTATT was tested, and the “relative binding free energy” value was -0.09 kcal/mol.
In the case of GAGTACACGTGAGTTG, the “relative binding free energy” value is reported as 0.35 kcal/mol.
With ATACGCACGTGGGGAG the “relative binding free energy” value was -0.25 kcal/mol.
For GTTGACACGTGGTATT, the “relative binding free energy” value was -0.05 kcal/mol.
In the case of CTTGCCACGTGGTTGG, the “relative binding free energy” value is reported as -0.15 kcal/mol.
For AGTGGCACGTGCTGCG, the “relative binding free energy” value was -0.19 kcal/mol.
In the case of GTTGACACGTGAGGGC, the “relative binding free energy” value is reported as 0.24 kcal/mol.
With TGGCTCACGTGATAGG the “relative binding free energy” value was 0.33 kcal/mol.
For TCGAGCACGTGTATGG, the “relative binding free energy” value was 0 kcal/mol.
In the case of TGTGGCACGTGGGTTA, the “relative binding free energy” value is reported as -0.17 kcal/mol.
With CGTGTCACGTGTTGCG the “relative binding free energy” value was 0.03 kcal/mol.
For TTAGGCACGTGCGAGA, the “relative binding free energy” value was -0.13 kcal/mol.
ACTGACACGTGGTGTG was tested, and the “relative binding free energy” value was -0.03 kcal/mol.
For GAGGTCACGTGCGTGA, the “relative binding free energy” value was 0.08 kcal/mol.
TGGGTCACGTGTGCAC was tested, and the “relative binding free energy” value was 0.01 kcal/mol.
With TGGTCCACGTGAGGCT the “relative binding free energy” value was 0.25 kcal/mol.
With ACTGTCACGTGGTTGT the “relative binding free energy” value was 0.13 kcal/mol.
In the case of TTGCACACGTGGCGTG, the “relative binding free energy” value is reported as -0.05 kcal/mol.
With TATATCACGTGGCAGT the “relative binding free energy” value was -0.06 kcal/mol.
With GGAGGCACGTGTTAAT the “relative binding free energy” value was 0.01 kcal/mol.
For ATTGGCACGTGAGGCA, the “relative binding free energy” value was 0.04 kcal/mol.
In the case of GATGACACGTGCGGTT, the “relative binding free energy” value is reported as 0.03 kcal/mol.
TTAGACACGTGATGGG was tested, and the “relative binding free energy” value was 0.29 kcal/mol.
TGGGGCACGTGTCTGG was tested, and the “relative binding free energy” value was -0.16 kcal/mol.
AGGCACACGTGTTGTG was tested, and the “relative binding free energy” value was 0.06 kcal/mol.
TATGGCACGTGAGCTT was tested, and the “relative binding free energy” value was -0.01 kcal/mol.
For GAGAGCACGTGTTGAC, the “relative binding free energy” value was 0.23 kcal/mol.
With GGGAGCACGTGCACGG the “relative binding free energy” value was -0.12 kcal/mol.
CCGGGCACGTGGTGGA was tested, and the “relative binding free energy” value was -0.18 kcal/mol.
With TACTGCACGTGTGTTT the “relative binding free energy” value was 0.06 kcal/mol.
With GGTCTCACGTGTAGTG the “relative binding free energy” value was 0.25 kcal/mol.
For ATGAACACGTGTTTTA, the “relative binding free energy” value was -0.01 kcal/mol.
For TAGGACACGTGTAATG, the “relative binding free energy” value was 0.12 kcal/mol.
With TATATCACGTGATTAT the “relative binding free energy” value was 0.17 kcal/mol.
TTGGACACGTGGTGAT was tested, and the “relative binding free energy” value was -0.09 kcal/mol.
With TTTCTCACGTGTGGCG the “relative binding free energy” value was 0.22 kcal/mol.
CGTATCACGTGGTTGA was tested, and the “relative binding free energy” value was 0.09 kcal/mol.
For CATGACACGTGTTTGG, the “relative binding free energy” value was -0.08 kcal/mol.
With CATATCACGTGTGAGT the “relative binding free energy” value was 0.19 kcal/mol.
For TGGCACACGTGTCTGT, the “relative binding free energy” value was 0.08 kcal/mol.
GAACTCACGTGGGTTG was tested, and the “relative binding free energy” value was 0.14 kcal/mol.
For GGTTTCACGTGAGACG, the “relative binding free energy” value was 0.23 kcal/mol.
With AAGGACACGTGAAAGG the “relative binding free energy” value was 0.27 kcal/mol.
For AAGGGCACGTGTGTTG, the “relative binding free energy” value was -0.12 kcal/mol.
For GTGGCCACGTGGTCAG, the “relative binding free energy” value was 0.04 kcal/mol.
